Data reported in publication PMC10668032.
This is one part of the list. At the low end of the ranking the order means little.

The sequences below were run against SIX1-Q177R homeodomain (UniProt Q15475) (assay: universal protein binding microarray). Settings: Universal all-10-mer PBM (8x60K, AMADID 030236), 300 nM GST-tagged protein, Alexa Fluor 488 anti-GST; buffer, salt, pH and temperature not stated; high values mean tight binding; most listed sequences are background and not binding sites; double strand, one strand shown.
AGATAATA was tested, and the binding signal was -0.252 E-score.
CGTAGTAC gave a binding signal of -0.0308 E-score.
AACAAGCA showed a binding signal of -0.0901 E-score.
Work on CAAAGATG yielded a binding signal of -0.186 E-score.
GAATATAA was tested, and the binding signal was -0.256 E-score.
ACCCGCTA showed a binding signal of 0.104 E-score.
With CTTGGACC the binding signal was -0.101 E-score.
GCCTTTCA showed a binding signal of -0.258 E-score.
ATTCAACC showed a binding signal of -0.0906 E-score.
ATATGGAC showed a binding signal of 0.0835 E-score.
Work on ACCGCACT yielded a binding signal of 0.12 E-score.
Work on ACTTCCGG yielded a binding signal of 0.00831 E-score.
Sequence CAGGATCC has a binding signal of 0.0583 E-score.
GATGCATC showed a binding signal of -0.161 E-score.
For GGCCAGGA, the binding signal was -0.205 E-score.
CAGTTTGG gave a binding signal of -0.0483 E-score.
CGGAATTA gave a binding signal of -0.032 E-score.
TAACCCGA showed a binding signal of 0.169 E-score.
GATGTATA was tested, and the binding signal was 0.103 E-score.
AGCCTCGC was tested, and the binding signal was -0.116 E-score.
AATAGAGG gave a binding signal of -0.0116 E-score.
With GGTTCGAC the binding signal was 0.116 E-score.
For TCGGCACA, the binding signal was 0.217 E-score.
With ACGGAAGC the binding signal was -0.0735 E-score.
Work on AAAGCGTT yielded a binding signal of -0.187 E-score.
CCTCTCCC was tested, and the binding signal was -0.0619 E-score.
CTTGACAC gave a binding signal of 0.429 E-score.
Work on ATCAACTG yielded a binding signal of -0.079 E-score.
Work on GCTAATGA yielded a binding signal of -0.151 E-score.
Sequence ACTAAGAC has a binding signal of 0.111 E-score.
CCCCTCTA was tested, and the binding signal was 0.251 E-score.
Work on AAATAAGC yielded a binding signal of -0.261 E-score.
With GATGAGAC the binding signal was 0.117 E-score.
In the case of AACAAGGC, the binding signal is reported as -0.132 E-score.
Sequence AAATTATG has a binding signal of -0.219 E-score.
CTAGCCCA gave a binding signal of -0.0749 E-score.
For CCGTTTTC, the binding signal was -0.0147 E-score.
For CTCGAGCA, the binding signal was 0.0105 E-score.
CAGAAATC gave a binding signal of -0.271 E-score.
GGGTAGGA showed a binding signal of 0.213 E-score.
ACTGCCGG showed a binding signal of -0.0774 E-score.
ACCCCGGT showed a binding signal of 0.298 E-score.
Work on AAGCATCA yielded a binding signal of -0.116 E-score.
GGATGAGA gave a binding signal of -0.0756 E-score.
For GCATGACC, the binding signal was -0.0216 E-score.
ACTGTGCA gave a binding signal of 0.195 E-score.
In the case of GTAATAAC, the binding signal is reported as 0.0545 E-score.
With ACTACTGA the binding signal was -0.106 E-score.
With ACAATGGC the binding signal was -0.122 E-score.
CGGCTGAG gave a binding signal of -0.151 E-score.
GAAGGGAC gave a binding signal of 0.0983 E-score.
GTCTGGAA gave a binding signal of -0.0947 E-score.
With ACAGATAT the binding signal was 0.0386 E-score.
For CCGTGGAC, the binding signal was -0.0853 E-score.
TGACAGAA gave a binding signal of -0.264 E-score.
With ATGCAGAC the binding signal was -0.0867 E-score.
TCAGTGCA was tested, and the binding signal was -0.0296 E-score.
For GACGCCCC, the binding signal was 0.182 E-score.
AACGCTGC gave a binding signal of 0.0197 E-score.
In the case of ATCACGAC, the binding signal is reported as 0.00187 E-score.
GAGCCACA was tested, and the binding signal was -0.0195 E-score.
CAACCAGA was tested, and the binding signal was -0.172 E-score.
For AAGCTTAG, the binding signal was -0.0191 E-score.
For AAACCGTT, the binding signal was 0.0154 E-score.
With ATCGTAAC the binding signal was -0.0138 E-score.
For CAATGCCC, the binding signal was -0.0431 E-score.
In the case of CCAGCAAC, the binding signal is reported as -0.118 E-score.
AGCAACAA gave a binding signal of -0.145 E-score.
Work on CTCTTTTC yielded a binding signal of -0.0969 E-score.
CCCTAGCG showed a binding signal of -0.187 E-score.
ATCCGGCG was tested, and the binding signal was 0.0867 E-score.
With ACGATCCT the binding signal was 0.181 E-score.
In the case of AACTCTTG, the binding signal is reported as -0.0461 E-score.
CAAAATTA was tested, and the binding signal was 0.00404 E-score.
In the case of ATGCGTTC, the binding signal is reported as -0.0126 E-score.
For GCCTAGAC, the binding signal was -0.0861 E-score.
ATCCTTTG gave a binding signal of 0.0224 E-score.
Work on GCATAAAA yielded a binding signal of 0.00893 E-score.
CTATCGAC was tested, and the binding signal was 0.0392 E-score.
Sequence CCAAAGAA has a binding signal of -0.229 E-score.
Sequence AAATGCAC has a binding signal of -0.0219 E-score.
In the case of CCGCAGAC, the binding signal is reported as 0.092 E-score.
For ATAGTTCG, the binding signal was -0.0169 E-score.
AAGAATGA was tested, and the binding signal was -0.167 E-score.
Sequence CTGATGCC has a binding signal of -0.0679 E-score.
With ACATTACT the binding signal was -0.123 E-score.
CATACTAC was tested, and the binding signal was 0.14 E-score.
With AGCCTGCA the binding signal was -0.03 E-score.
Work on ACGGCCGT yielded a binding signal of 0.138 E-score.
Sequence GGTACACA has a binding signal of 0.322 E-score.
In the case of AGCTCATG, the binding signal is reported as -0.141 E-score.
Sequence CATGCCAA has a binding signal of -0.195 E-score.
ACGGTCAT gave a binding signal of -0.16 E-score.
For GCACGTCC, the binding signal was -0.061 E-score.
